# Measurements: PubChem BioAssay AID624418 (National Center for Advancing Translational Sciences (NCATS), 2012)
# The whole screen tested about 410,000 compounds, of which about 530 (0.13%) were called active. Inconclusive means that the source gave no clear call. Such entries were picked first, then a sample of the others. The call rests on the fitted dose curve; in most records, active means well fitted inhibition curve with a large enough effect; inconclusive means small, poorly fitted or top-dose-only effect, or another doubt; inactive means no such curve, though single readings can be large or run the other way. Where the call is inconclusive, the potency comes from a doubtful curve fit.
# Assay: qHTS of GLP-1 Receptor Inverse Agonists: Cytotox Screen
# Details: HEK293 cAMP-luciferase reporter cells, luminescence, 24 h; series mostly up to 38.3 µM
# Summary of the method: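 Step one: seed cells (200 cells/uL, DMEM with 10% Nu serum, 1% pen-strep). Step two: 12-hour incubation at 37 deg C. Step three: pin 23 nL compound, incubate 24 hr. Step four: add luciferase reagent, read luminescence 12 min later.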
# Potency means the concentration at half of the fitted maximal effect.
row,SMILES,Potency
1,Cc1ccc(/C(N)=N/OC(=O)N2CCOCC2)cc1,"inconclusive: 28.2 µM [inhibitor, single point]"
2,COC(=O)/C(=C\Nc1ccc(Cl)cc1Cl)NC(=O)c1ccc(OC)cc1,"inconclusive: 6.31 µM [inhibitor, partial curve]"
3,S=C(NCCc1ccccc1)Nc1ccc(Br)cc1,"inconclusive: 12.6 µM [inhibitor, single point]"
4,CC(=O)NC(c1ccc(Cl)cc1Cl)c1ccc2cccnc2c1O (stereo not given),"inconclusive: 2.51 µM [inhibitor, full curve, poor fit]"
5,COC(=O)c1ccccc1NC(=O)Cn1cc(S(=O)(=O)Cc2ccccc2F)c2ccccc21,inactive
6,Cn1c(=O)[nH]c(=O)c2[nH]c(N(Cc3ccccc3)Cc3ccccc3)nc21,"inconclusive: 28.2 µM [inhibitor, single point]"
7,COc1ccc2nc(SCC(=O)Nc3ccc4c(c3)CCC4)[nH]c2c1,"inconclusive: 0.501 µM [inhibitor, full curve, poor fit]"
8,O=C(Nc1cc(Cl)cc(Cl)c1)c1ccc(F)c(S(=O)(=O)NC2CCCC2)c1,"inconclusive: 17.8 µM [inhibitor, single point]"
9,c1cc2c3c(cccc3c1)NC1(CCC3(CC1)Nc1cccc4cccc(c14)N3)N2,"inconclusive: 22.4 µM [inhibitor, single point]"
10,CCOC(=O)c1c(C)sc2c1N(C(=O)CCl)c1cc(Cl)ccc1S2,"inconclusive: 15.8 µM [inhibitor, partial curve, poor fit]"
11,Cc1ccc(SCCN2CCC(NC(=O)OCc3ccccc3)CCC2=O)cc1 (stereo not given),inactive
12,O=C(Nc1cccc(S(=O)(=O)NC2=NCCC2)c1)c1cn(-c2ccccc2)nc1-c1ccc(F)cc1,"inconclusive: 11.2 µM [inhibitor, single point]"
13,Cc1nn(C(C)C)c(C)c1CN1CCC(C(=O)Nc2cccc(-c3cccc(F)c3)c2)CC1,"inconclusive: 14.1 µM [inhibitor, partial curve, poor fit]"
14,COc1ccc(/C=N/NC(=S)N[C@H]2CC3CCC2C3)cc1 (stereo not given in full),"inconclusive: 15.8 µM [inhibitor, single point]"
15,CC(C)(C)c1cc(C(F)(F)F)c(C#N)c(=O)[nH]1,inactive
16,Cc1cccc(/N=C2/NC(=O)C(Cc3ccccc3)S2)n1 (stereo not given),inactive
17,O=C(NC1CCCCC1)C(c1cccnc1)N(C(=O)CCl)c1cccc(Cl)c1 (stereo not given),"inconclusive: 11.2 µM [inhibitor, single point]"
18,O=C(c1ccc(F)cc1)N1CCN(c2ccc([N+](=O)[O-])c(N3CCCCC3)c2)CC1,"inconclusive: 28.2 µM [inhibitor, partial curve, poor fit]"
19,O=C(Oc1cccc2cccnc12)c1cccc(N2C(=O)C3C4CCC(C4)C3C2=O)c1 (stereo not given),active: 2.51 µM
20,c1ccc(CSc2nnc(NC3CCCCC3)s2)cc1,inactive
21,CSCCC(NS(=O)(=O)c1ccc2c(c1)oc(=O)n2C)C(=O)NCCc1ccc(C)cc1 (stereo not given),inactive
22,CCN(CC)S(=O)(=O)c1ccc(N/N=C/c2cccnc2)nc1,inactive

row,SMILES,Potency
1,COC(=O)c1ccc(CC2(C)C(=O)Nc3ccc(-c4cccc(C(F)(F)F)c4)cc32)o1 (stereo not given),"inconclusive: 8.91 µM [inhibitor, partial curve, poor fit]"
2,O=C(/C=C/c1ccccc1)NC(=S)Nc1ccccc1O,"inconclusive: 2.82 µM [inhibitor, partial curve]"
3,CC[C@@H]1C(c2ccc(F)cc2)=NN(c2ccc(Br)cc2)[C@H]1C(=O)N1CCOC1=O,inactive
4,CC1CC(NNC(=O)c2ccccc2)=Nc2ccccc2N1C (stereo not given),inactive
5,COc1ccc(NC(=O)C2C3C=CC4(O3)C2C(=O)N(CCN2CCCCC2)C4C(=O)NC2CCCC(C)C2C)cc1 (stereo not given),"inconclusive: 10 µM [inhibitor, partial curve, poor fit]"
6,CCOC(=O)C1C(c2ccccc2)NC(=S)NC1(C)O (stereo not given),inactive
7,CN1C=CC=C/C1=C1\SC(=S)N(c2ccccc2)C1=O,"inconclusive: 14.1 µM [inhibitor, single point]"
8,COc1ccc(N2CCN(C(=O)CSc3nnc(Cn4nnc5ccccc54)n3C)CC2)cc1,"inconclusive: 31.6 µM [inhibitor, partial curve, poor fit]"
9,COc1ccc(-c2nc(CN3CCC(C(=O)NCCCN4CCN(c5ccccc5F)CC4)CC3)c(C)o2)cc1OC,active: 12.6 µM
10,CN(C)NC(=S)NC(=O)C12CC3CC(CC(C3)C1)C2,"inconclusive: 12.6 µM [inhibitor, partial curve, poor fit]"
11,CCCC(=O)NC(c1ccccc1OC)c1ccc2cccnc2c1O (stereo not given),"inconclusive: 3.16 µM [inhibitor, full curve, poor fit]"
12,N=c1sccn1CC(=O)Nc1ccc2c(c1)CCC2,"inconclusive: 7.08 µM [inhibitor, partial curve, poor fit]"
13,S=C(Nc1ccc(CN2CCCCC2)cc1)Nc1cccc(Cl)c1Cl,"inconclusive: 11.2 µM [inhibitor, single point]"
14,O=c1nc(N/N=C/c2ccccn2)cn[nH]1,"inconclusive: 12.6 µM [inhibitor, partial curve]"
15,Cc1nn(C)c(Cl)c1S(=O)(=O)N[C@@H](c1ccccc1)[C@]1(C)C[C@H]1[C@@H](C)C(=O)Nc1ccc2ccccc2c1,"inconclusive: 1.78 µM [inhibitor, partial curve, poor fit]"
16,CC1=CC(C)(C)NC(=S)N1c1ccc(C)cc1,"inconclusive: 28.2 µM [inhibitor, single point]"
17,COc1ccc(-c2cc(NC=O)c3ncc(-c4cccc(OC)c4)n3c2)cc1,"inconclusive: 3.98 µM [inhibitor, partial curve, poor fit]"
18,FC(F)(F)c1ccccc1NC(=S)N/N=C1\CC2CC=CC12 (stereo not given),"inconclusive: 22.4 µM [inhibitor, single point]"
19,Cc1ccc(OCCCCN2CCCC(C)C2)c([N+](=O)[O-])c1 (stereo not given),"inconclusive: 28.2 µM [inhibitor, single point]"
20,COc1ccc(-c2[nH]c(-c3ccc(C)cc3)nc2SCC(=O)NC2CCCC2)cc1,"inconclusive: 25.1 µM [inhibitor, single point]"
21,CCOc1ccccc1NC(=S)NC(=O)C1CC1,"inconclusive: 20 µM [inhibitor, single point]"
22,[O-][N+](=C(c1ccccc1)c1ccccc1)c1ccccc1,"inconclusive: 28.2 µM [inhibitor, single point]"

row,SMILES,Potency
1,COCCCNC(=O)C1CCN(c2nc(C)cc(C)n2)CC1,inactive
2,C=CCNc1nc(NCc2ccc(NC(C)=O)cc2)c2sc(-c3ccccc3)cc2n1,"inconclusive: 12.6 µM [inhibitor, single point]"
3,COc1ccc(CNC(=O)C(c2ccncc2)N(C(=O)Cc2cccs2)c2cccc(C)c2)cc1 (stereo not given),"inconclusive: 10 µM [inhibitor, single point]"
4,C=CCC[C@H](Cc1ccc(F)cc1)C(=O)OC[C@@H](C)NC(=O)[C@H](CC=C)CC(=O)NCCO,"inconclusive: 28.2 µM [inhibitor, single point]"
5,COc1cccc(Cn2c(-c3nonc3N)nc3ccccc32)c1,"inconclusive: 1 µM [inhibitor, full curve]"
6,O=C(C1CCCN(Cc2ccccc2C(F)(F)F)C1)N1CCCCC1 (stereo not given),inactive
7,CCN(CC)c1ccc(-c2nn3c(-c4ccccc4OC)nnc3s2)cc1,"inconclusive: 0.794 µM [inhibitor, full curve, poor fit]"
8,c1ccc(C[C@H]2CN=C(Nc3ccccc3)N2CC2CCC2)cc1,"inconclusive: 3.98 µM [inhibitor, partial curve, poor fit]"
9,O=C(NC1=NCCS1)c1ccccc1F,"inconclusive: 22.4 µM [inhibitor, single point]"
10,Cc1ccc(CNC(=O)c2cnc(N(C)C)nc2)cc1,inactive
11,CN(C)CCCNc1nc(-c2ccc(Cl)cc2)nc2ccccc12,"inconclusive: 28.2 µM [inhibitor, single point]"
12,OCCOCCNc1ncnc2c1cnn2-c1ccc(Cl)cc1,inactive
13,CC1=C(C(=O)Nc2ccccc2C)C(c2cccs2)NC(=S)N1 (stereo not given),inactive
14,CCOc1ccc(CCNC(=O)COC(=O)c2cc(S(=O)(=O)N3CCOCC3)ccc2F)cc1OCC,"inconclusive: 2.24 µM [inhibitor, full curve, poor fit]"
15,COc1ccccc1CNCc1ccc(OC)c2ccccc12,"inconclusive: 12.6 µM [inhibitor, single point]"
16,FC(F)(F)c1ccccc1/C=N/n1c(COc2ccccc2)n[nH]c1=S,"inconclusive: 28.2 µM [inhibitor, single point]"
17,CC(=O)Nc1ccc(-c2csc(Nc3ccc(Cl)cn3)n2)cc1,"inconclusive: 10 µM [inhibitor, partial curve]"
18,COc1ccc(C2CC(c3ccc4ccccc4c3)=NN2C(=O)CNC2CCCCC2)cc1 (stereo not given),"inconclusive: 28.2 µM [inhibitor, single point]"
19,CCn1c2ccccc2c2cc(NC(=O)C3CCN(S(=O)(=O)c4cccs4)CC3)ccc21,"inconclusive: 1.78 µM [inhibitor, partial curve, poor fit]"
20,CCN1CCN(C(=O)C2CCN(c3nnc(C)c4c(C)n(-c5ccc(C)cc5)nc34)CC2)CC1,"inconclusive: 14.1 µM [inhibitor, partial curve, poor fit]"
21,Cc1cc(C)cc(NC(=S)NC(=O)C2CC2)c1,"inconclusive: 7.08 µM [inhibitor, partial curve, poor fit]"
